Data published in PubChem BioAssay AID1030 (National Center for Advancing Translational Sciences (NCATS), 2008).
“And” between values parts separate entries of the source, which are not always exact repeats. Equal values may be shown once. Out of some 220,000 compounds screened, about 16,000 (7.3%) were called active. The inconclusive results got no clear call from the source; some entries with a clear call stand among them for comparison. The call rests on the fitted dose curve; in most records, active means well fitted inhibition curve with a large enough effect (not every such curve was filed as active); inconclusive means small, poorly fitted or top-dose-only effect, or another doubt; inactive means no such curve, though single readings can be large or run the other way. A potency beside an inconclusive call is a rough fit, not a confirmed value.

Biological target: Aldehyde dehydrogenase 1A1 (Homo sapiens) (UniProt P00352)
Experiment: qHTS Assay for Inhibitors of Aldehyde Dehydrogenase 1 (ALDH1A1);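 on activity, negative = inhibition: plate controls were no enzyme wells and a reference inhibitor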
Conditions: Purified ALDH1A1, NADH fluorescence, propionaldehyde substrate; series mostly up to 75.3 µM
Potency means the concentration at half of the fitted maximal effect; tags describe the fitted curve by direction and shape.

Sequence of UniProt P00352 (P00352 whole entry, looked up): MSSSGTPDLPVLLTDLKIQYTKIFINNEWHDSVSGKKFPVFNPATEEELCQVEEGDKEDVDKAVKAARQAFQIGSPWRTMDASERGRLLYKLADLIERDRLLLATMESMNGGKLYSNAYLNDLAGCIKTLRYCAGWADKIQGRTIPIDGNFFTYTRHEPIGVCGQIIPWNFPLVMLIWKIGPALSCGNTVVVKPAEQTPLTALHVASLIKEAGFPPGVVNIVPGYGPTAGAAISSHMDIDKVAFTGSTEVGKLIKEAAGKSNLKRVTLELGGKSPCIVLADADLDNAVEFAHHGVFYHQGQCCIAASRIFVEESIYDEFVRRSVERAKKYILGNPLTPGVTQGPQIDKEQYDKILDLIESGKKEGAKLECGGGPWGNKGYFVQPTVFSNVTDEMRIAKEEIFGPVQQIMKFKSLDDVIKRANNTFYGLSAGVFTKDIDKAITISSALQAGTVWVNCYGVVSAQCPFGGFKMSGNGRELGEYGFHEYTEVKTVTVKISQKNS

Q: Which Potency does the source give for `Cc1ccc(NC2=NCC(=O)N2Cc2ccc3c(c2)OCO3)cc1` here?
A: The Potency was “inactive”.

Q: `CCOc1cc(C2C(C(=O)OC)=CN(C3CCCC3)C=C2C(=O)OC)cc(Br)c1O` was tested. Which Potency did it give?
A: The Potency was inconclusive: 28.2 µM [inhibitor, single point].

Q: How did the Potency turn out when `Cc1ccccc1NC(=O)NNC(=O)OC(C)(C)C` was run?
A: Its Potency is “inactive”.

Q: Which Potency does the source give for `CCC(CC)C(=O)Nc1cccc(S(=O)(=O)c2cccc(NC(=O)C(CC)CC)c2)c1` here?
A: Its Potency is “inactive”.

Q: How did the Potency turn out when `COC(=O)c1ccccc1NC(=O)Cn1c(CCC(=O)O)ccc1-c1cccs1` was run?
A: Its Potency is inconclusive: 39.8 µM [inhibitor, single point].

Q: With `O=C(NCc1ccccn1)c1n[nH]c(=O)c2ccccc12` as the molecule, how does the Potency read?
A: Its Potency is inconclusive: 28.2 µM [inhibitor, single point].

Q: For `COc1ccc(NC(=S)N2CCN(C/C=C/c3ccccc3)CC2)cc1`, which Potency is on record?
A: Its Potency is “inactive”.

Q: For `COC(=O)C1=CN(CCCN2CCCC2=O)C=C(C(=O)OC)C1c1ccccc1C(F)(F)F`, which Potency is on record?
A: Its Potency is inconclusive: 31.6 µM [inhibitor, partial curve].

Q: How did the Potency turn out when `CC(C)n1cc(C(=O)c2cc(Br)ccc2O)cc(C#N)c1=O` was run?
A: The Potency was inconclusive: 22.4 µM [inhibitor, single point].

Q: `CCOC(=O)N1CCN(C(=O)c2ccc(CNS(=O)(=O)c3ccc(OC)cc3)cc2)CC1` was tested. Which Potency did it give?
A: Its Potency is “inactive”.

Q: How did the Potency turn out when `Cc1nc(N2CCOCC2)c2nc(-c3ccccc3)n(CCN3CCOCC3)c2n1` was run?
A: The Potency was inconclusive: 11.2 µM [inhibitor, partial curve].

Q: For `CCOC(=O)C1=NOC(CNC(=O)C2=NOC(CNC(=O)c3c(-c4ccccc4Cl)noc3C)C2)C1` (stereo unspecified), which Potency is on record?
A: Its Potency is “inactive”.

Q: With `CC(=O)CSc1nnc(-c2cnccn2)n1-c1ccccc1` as the molecule, how does the Potency read?
A: Its Potency is “inactive”.

Q: With `CCOC(=O)c1sc(NC(=O)CSc2nc(C)cc(C)c2C#N)c(C#N)c1C` as the molecule, how does the Potency read?
A: The Potency was inconclusive: 25.1 µM [inhibitor, partial curve].

Q: Which Potency does the source give for `Cc1c(OCc2ccc(C(=O)O)o2)ccc2c3c(c(=O)oc12)CCC3` here?
A: The Potency was inconclusive: 31.6 µM [inhibitor, partial curve].

Q: With `NS(=O)(=O)c1ccc(CNC(=S)NCc2ccc(Cl)cc2)cc1` as the molecule, how does the Potency read?
A: The Potency was inconclusive: 39.8 µM [inhibitor, single point].

Q: Which Potency does the source give for `Cc1c(N=Cc2ccc(Br)s2)cccc1[N+](=O)[O-]` here?
A: The Potency was inconclusive: 39.8 µM [inhibitor, single point].

Q: Which Potency does the source give for `COc1cc2[nH]c(=O)c(C(=O)NCCCN3CCOCC3)c(O)c2cc1OC` here?
A: Its Potency is inconclusive: 35.5 µM [inhibitor, single point].

Q: With `NCCCC[C@@H](N)C(=O)O` as the molecule, how does the Potency read?
A: The Potency was “inactive”.

Q: `COCCN=c1scc(-c2cccs2)n1/N=C(\C)c1ccco1` was tested. Which Potency did it give?
A: Its Potency is inconclusive: 39.8 µM [inhibitor, single point].

Q: How did the Potency turn out when `Cc1cccc2sc(NC(=O)[C@@H]3CCCN3C(=O)c3cccs3)nc12` was run?
A: The Potency was “inactive”.

Q: With `CC1CCCCC1NC(=O)CSc1nnc(-c2ccccc2)n1N` (stereo unspecified) as the molecule, how does the Potency read?
A: Its Potency is inconclusive: 28.2 µM [inhibitor, single point].

Q: `CCC(=O)Nc1ccc(NC(=O)c2cc3ccccc3o2)cc1` was tested. Which Potency did it give?
A: The Potency was inconclusive: 39.8 µM [inhibitor, single point].

Q: For `CC(=O)c1ccc(NC(=O)Nc2ccc(NS(=O)(=O)c3ccc(C)cc3)cc2)cc1`, which Potency is on record?
A: The Potency was inconclusive: 20 µM [inhibitor, partial curve].

Q: For `Cc1c(Cl)cccc1NC(=S)NC1CC1`, which Potency is on record?
A: Its Potency is inconclusive: 39.8 µM [inhibitor, single point].

Q: How did the Potency turn out when `Cc1ccccc1NS(=O)(=O)c1ccc2[nH]cc(C(=O)N(C)Cc3ccco3)c(=O)c2c1` was run?
A: Its Potency is inconclusive: 39.8 µM [inhibitor, single point].

Q: For `CC(C)(C)c1nnc(N/N=C/c2cc(Br)ccc2O)n(N)c1=O`, which Potency is on record?
A: Its Potency is “inactive”.

Q: `CCCOc1ccc(-c2csc(NC(=O)CN3C(=O)CCC3=O)n2)cc1` was tested. Which Potency did it give?
A: Its Potency is “inactive”.

Q: `Clc1ccc(CCNc2nc3ccccc3n3nnnc23)cc1` was tested. Which Potency did it give?
A: Its Potency is inconclusive: 25.1 µM [inhibitor, single point].

Q: For `CC1CCCCN1CC(=O)Nc1ccc(Oc2ccccc2)cc1` (stereo unspecified), which Potency is on record?
A: Its Potency is “inactive”.

Q: `CCCn1c(SCC(=O)O)nc2ccccc21` was tested. Which Potency did it give?
A: Its Potency is inconclusive: 28.2 µM [inhibitor, single point].

Q: Which Potency does the source give for `CCOC(=O)N1CCC(=NNc2ccc(S(N)(=O)=O)cc2[N+](=O)[O-])CC1` here?
A: Its Potency is inconclusive: 39.8 µM [inhibitor, single point].

Q: `CC1CCN(S(=O)(=O)c2ccc(N=NC3=C(O)CC(C)(C)CC3=O)cc2)CC1` was tested. Which Potency did it give?
A: Its Potency is inconclusive: 1 µM [inhibitor, full curve].

Q: How did the Potency turn out when `O=C1CCCC2=C1C(c1ccc(O)c(O)c1)Nc1ccc3ncccc3c12` (stereo unspecified) was run?
A: Its Potency is “inactive”.

Q: Which Potency does the source give for `COc1ccc(CN2CCNC(=O)C2CC(=O)O)cc1OC` (stereo unspecified) here?
A: Its Potency is inconclusive: 39.8 µM [inhibitor, single point].

Q: `COc1ccc(N2C(=O)CC(Sc3n[nH]c(-c4ccc(C)cc4)n3)C2=O)cc1` (stereo unspecified) was tested. Which Potency did it give?
A: Its Potency is active: 0.794 µM.

Q: `CCOC(=O)c1cnc(-n2cc(C)cn2)nc1NCc1ccc2c(c1)OCO2` was tested. Which Potency did it give?
A: The Potency was inconclusive: 31.6 µM [inhibitor, partial curve].

Q: Which Potency does the source give for `COc1ccc(CNC(=O)CSc2nc3cccnc3s2)cc1` here?
A: The Potency was inconclusive: 39.8 µM [inhibitor, single point].

Q: How did the Potency turn out when `CCOC(=O)Nc1cc2c(cc1C(C)=O)OCO2` was run?
A: The Potency was inconclusive: 37.7 µM [inhibitor, single point].

Q: How did the Potency turn out when `O=C(COC(=O)c1cc(-c2cccs2)nn1-c1ccccc1)Nc1cccc([N+](=O)[O-])c1` was run?
A: Its Potency is inconclusive: 0.189 µM [inhibitor, full curve, poor fit].

Q: For `CCc1ccccc1O`, which Potency is on record?
A: The Potency was “inactive”.

Q: How did the Potency turn out when `COc1ccccc1N1CCN(C(=O)CSc2ccccc2)CC1` was run?
A: The Potency was inconclusive: 25.1 µM [inhibitor, single point].

Q: `COc1ccc2nc(Nc3nc(CSc4nc5ccccc5[nH]4)cc(=O)[nH]3)nc(C)c2c1` was tested. Which Potency did it give?
A: Its Potency is “inactive”.

Q: Which Potency does the source give for `CCOC(=O)Cc1csc(NC(=O)COc2ccc(N(C)S(=O)(=O)c3cccs3)cc2)n1` here?
A: The Potency was inconclusive: 39.8 µM [inhibitor, single point].

Q: `CCC1CCCCN1CC(=O)Nc1cc(C)nn1-c1nc(C)cc(C)n1` (stereo unspecified) was tested. Which Potency did it give?
A: The Potency was active: 14.1 µM.

Q: `C[C@@H]1Oc2ccc(C(=O)C[C@@H](C(=O)O)c3ccc4c(c3)OCO4)cc2O1` was tested. Which activity, negative = inhibition did it give?
A: Its activity, negative = inhibition is inactive: 0.424% [at 13.5 µM].

Q: `BrC(=C\c1ccccc1)/C=N/Nc1nc2ccccc2[nH]1` was tested. Which Potency did it give?
A: Its Potency is inconclusive: 28.2 µM [inhibitor, single point].

Q: For `CCN(CC)C(=O)/C(=C\c1ccc(Br)cc1)NC(=O)c1ccccc1OC`, which Potency is on record?
A: The Potency was “inactive”.

Q: How did the Potency turn out when `CCn1cc(CNCc2cn[nH]c2-c2cc3ccccc3o2)cn1` was run?
A: Its Potency is inconclusive: 39.8 µM [inhibitor, partial curve, poor fit].

Q: `N#Cc1c(C(F)(F)F)cc(-c2cccc(Cl)c2)[nH]c1=O` was tested. Which Potency did it give?
A: Its Potency is inconclusive: 31.6 µM [inhibitor, partial curve].

Q: For `COc1ccc(Cn2c(=O)[nH]c3cc(C(=O)NCCCN4CCCC4)ccc3c2=O)cc1`, which Potency is on record?
A: Its Potency is inconclusive: 25.1 µM [inhibitor, partial curve, poor fit].

Q: `CCOc1ccccc1NC=C1C(=O)OC2(CCCCC2)OC1=O` was tested. Which Potency did it give?
A: Its Potency is active: 0.708 µM.

Q: With `CCCCCOC(=O)c1[nH]c2c(c1C)C(=O)C(C(=O)OC)C(C)C2` (stereo unspecified) as the molecule, how does the Potency read?
A: The Potency was inconclusive: 25.1 µM [inhibitor, single point].

Q: For `CCN(CC)S(=O)(=O)c1ccc(C)c(NC(=O)COC(=O)c2ccc(C)c(S(=O)(=O)N3CCOCC3)c2)c1`, which Potency is on record?
A: The Potency was “inactive”.

Q: `Cc1cccc(NC(=O)c2cnc3scc(C)n3c2=O)c1` was tested. Which Potency did it give?
A: Its Potency is “inactive”.

Q: For `C#CC(C)(CC)NC(=O)Cn1nnc(-c2cccc(C(F)(F)F)c2)n1` (stereo unspecified), which Potency is on record?
A: Its Potency is inconclusive: 39.8 µM [inhibitor, single point].

Q: Which Potency does the source give for `COc1ccc(CC(=O)N2CC(C)CC(C)C2)cc1` (stereo unspecified) here?
A: Its Potency is inconclusive: 12.6 µM [inhibitor, partial curve].

Q: With `CCn1c(C)c(C(C)=O)c(N2CCN(C(=O)c3ccco3)CC2)nc1=S` as the molecule, how does the Potency read?
A: The Potency was inconclusive: 22.4 µM [inhibitor, single point].

Q: How did the Potency turn out when `COC(=O)CN(Cc1ccco1)S(=O)(=O)c1ccccc1` was run?
A: The Potency was inconclusive: 39.8 µM [inhibitor, single point].

Q: `CCOC(=O)c1ccc2nc(C)c(CCC(C)=O)c(Cl)c2c1` was tested. Which Potency did it give?
A: The Potency was inconclusive: 39.8 µM [inhibitor, single point].

Q: Which Potency does the source give for `CC1(C)CN2C(=O)c3ccccc3C2(C)S1` (stereo unspecified) here?
A: Its Potency is “inactive”.

Q: `COc1ccc(OCC(=O)N2CCN(C(=O)c3ccccc3)CC2)cc1` was tested. Which Potency did it give?
A: The Potency was inconclusive: 28.2 µM [inhibitor, single point].

Q: With `COc1nc(-c2ccccc2)ccc1-c1noc(-c2ccc(F)cc2)n1` as the molecule, how does the Potency read?
A: Its Potency is inconclusive: 8.91 µM [inhibitor, full curve].

Q: How did the Potency turn out when `O=C(NCCO)C1COc2ccccc2O1` (stereo unspecified) was run?
A: The Potency was “inactive”.

Q: For `COc1ccccc1CNC(=O)c1cccc(-c2ccc(C)c3ccccc23)n1`, which Potency is on record?
A: Its Potency is inconclusive: 39.8 µM [inhibitor, single point] and inconclusive: 28.2 µM [inhibitor, partial curve].

Q: `Cc1ccc(-c2noc(CN(C(=O)Cc3ccccc3)C(C)C)n2)cc1` was tested. Which Potency did it give?
A: The Potency was inconclusive: 39.8 µM [inhibitor, single point].

Q: With `COc1cc(/C=C(/C#N)c2ccc(F)cc2)ccc1OCc1ccc(C(=O)O)o1` as the molecule, how does the Potency read?
A: The Potency was inconclusive: 1.58 µM [inhibitor, full curve, poor fit].

Q: For `O=C(NCCC1=CCCCC1)C(=O)NCC1OCCCN1S(=O)(=O)c1cc(F)ccc1F` (stereo unspecified), which Potency is on record?
A: Its Potency is “inactive”.

Q: For `CCOC(=O)N1CCN(C(=O)COc2ccc([N+](=O)[O-])cc2)CC1`, which Potency is on record?
A: The Potency was “inactive”.

Q: `Cc1cccc(S(=O)(=O)N2CN(Cc3ccco3)c3nc4ccccc4nc32)c1` was tested. Which Potency did it give?
A: Its Potency is inconclusive: 39.8 µM [inhibitor, single point].

Q: How did the Potency turn out when `Cc1cc(NC(=O)CSc2ccc3c(c2)OCCO3)no1` was run?
A: Its Potency is inconclusive: 6.31 µM [inhibitor, partial curve, poor fit].
